Experimental data taken from the supplement of paper PMC9135407.
Values joined by “and” are separate entries in the source; they are usually repeats but may differ in a detail not shown here. Identical values can stand only once. Counter-ions that a name gives are not always drawn. Among all 5,800 compounds or so, about 620 (11%) showed activity.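 Rule for the calls: active = score above a cut-off or among the top three wells of a plate; in these data no inactive exceeds 0.85.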 The list shows a part of the results, in another mix than the full data.

System: primary human hepatic stellate cells (donor 1)
Test: scaled lipid accumulation score (0 = DMSO-like, 1 = nortriptyline-like); higher = stronger HSC inactivation (lipid re-accumulation), active = hit call of the paper
Conditions: 48 h
[1] = library stock concentration: 10 mM
[2] = library stock concentration: 3.33 mM
[3] = library stock concentration: 6.4 mM
[4] = library stock concentration: 1 mM

Compound: CCC1(c2ccccc2)C(=O)NCNC1=O
- scaled lipid accumulation score [1]: inactive: ≤ 0

Compound: CCC1(c2ccccc2)C(=O)NCNC1=O [Primidone]
- scaled lipid accumulation score: inactive: ≤ 0
- scaled lipid accumulation score [2]: inactive: ≤ 0
- scaled lipid accumulation score (library stock concentration: 9.2 mM): inactive: ≤ 0
- scaled lipid accumulation score [1]: inactive: ≤ 0

Compound: CCn1cc(-c2ccnc3[nH]c(-c4cccc(CN(C)C)c4)cc23)c(-c2ccc(NC(=O)N(C)C)cc2)n1
- scaled lipid accumulation score [1]: active: 0.863

Compound: COC(=O)N[C@H](C(=O)N1CCC[C@H]1c1ncc(-c2ccc(-c3ccc(-c4cnc([C@@H]5CCCN5C(=O)[C@@H](NC(=O)OC)C(C)C)[nH]4)cc3)cc2)[nH]1)C(C)C
- scaled lipid accumulation score [1]: active: 1.04

Compound: N#Cc1ccc2c(c1)N(CCCN1CCC(O)CC1)c1ccccc1S2 [Periciazine]
- scaled lipid accumulation score [1]: inactive: 0.107

Compound: COc1cc2nccc(Oc3ccc(NC(=O)Nc4ccc(F)cc4F)c(F)c3)c2cc1OC
- scaled lipid accumulation score [1]: active: 1.05

Compound: COC(=O)C1=C(C)NC(C)=C(C(=O)OC(C)(C)CN(C)CCC(c2ccccc2)c2ccccc2)C1c1cccc([N+](=O)[O-])c1 (centres undefined) [Lercanidipine hydrochloride hemihydrate]
- scaled lipid accumulation score [1]: inactive: 0.321

Compound: C[C@]12CCC(=O)C=C1CC[C@@H]1[C@@H]2CC[C@@]2(C)[C@H]1CC[C@]2(O)C(=O)CO [Reichstein?s substance?S]
- scaled lipid accumulation score [1]: inactive: ≤ 0

Compound: C[C@]12CCC(=O)C=C1CC[C@@H]1[C@@H]2CC[C@@]2(C)[C@H]1CC[C@]2(O)C(=O)CO [Cortexolone]
- scaled lipid accumulation score [1]: inactive: ≤ 0

Compound: CN1CC(O)C(O)C(O)C1CO (centres undefined) [N-Methyl-1-deoxynojirimycin]
- scaled lipid accumulation score [1]: inactive: ≤ -0.07

Compound: CCCCn1c2ccc(O)cc2c2c3c(c(-c4ccccc4Cl)cc21)C(=O)NC3=O [Wee1 Inhibitor II]
- scaled lipid accumulation score [2]: inactive: ≤ 0

Compound: COc1ccc(Cl)cc1NC(=O)Nc1cc(C)nc2ccccc12 [IGF-1R Inhibitor II]
- scaled lipid accumulation score [2]: inactive: 0.188

Compound: COc1ccc(Cl)cc1NC(=O)Nc1cc(C)nc2ccccc12
- scaled lipid accumulation score [2]: inactive: 0.097
- scaled lipid accumulation score [1]: inactive: 0.391

Compound: COc1ccccc1N1CCN(CCCNc2c(C)c(=O)n(C)c(=O)n2C)CC1 [Urapidil, 5-Methyl-]
- scaled lipid accumulation score [1]: inactive: ≤ 0

Compound: O=C1CC[C@@H](C(=O)N2CSC[C@H]2C(=O)O)N1
- scaled lipid accumulation score [1]: inactive: ≤ 0

Compound: O=C1CC[C@@H](C(=O)N2CSC[C@H]2C(=O)O)N1 [Pidotimod]
- scaled lipid accumulation score [2]: inactive: 0.045
- scaled lipid accumulation score [1]: inactive: ≤ 0

Compound: O=C(Nc1ncc(SCCN2CCCC2)s1)[C@]1(c2ccc(S(=O)(=O)C3CC3)cc2)C[C@@H]1C1CCCCC1
- scaled lipid accumulation score [2]: active: 1.12

Compound: c1ccc(-c2ccc(C(c3ccccc3)n3ccnc3)cc2)cc1 (centres undefined)
- scaled lipid accumulation score [1]: inactive: ≤ 0

Compound: c1ccc(-c2ccc(C(c3ccccc3)n3ccnc3)cc2)cc1 (centres undefined) [Bifonazole]
- scaled lipid accumulation score [2]: inactive: ≤ 0
- scaled lipid accumulation score [3]: inactive: ≤ 0 and inactive: 0.162
- scaled lipid accumulation score [1]: inactive: 0.138 and inactive: ≤ -0.027

Compound: Oc1c(Cl)cc(Cl)c2cccnc12 [Chloroxine]
- scaled lipid accumulation score [2]: inactive: 0.008
- scaled lipid accumulation score (library stock concentration: 9.3 mM): inactive: ≤ 0
- scaled lipid accumulation score [1]: inactive: 0.067 and inactive: ≤ 0

Compound: CCOc1nc2cccc(C(=O)O)c2n1Cc1ccc(-c2ccccc2-c2nnn[nH]2)cc1 [Candesartan]
- scaled lipid accumulation score [2]: inactive: 0.024
- scaled lipid accumulation score (library stock concentration: 4.5 mM): inactive: ≤ -0.006
- scaled lipid accumulation score [1]: inactive: ≤ 0

Compound: CCN(CC)CCCCNc1ncc2cc(-c3c(Cl)cccc3Cl)c(NC(=O)NC(C)(C)C)nc2n1
- scaled lipid accumulation score [1]: active: 1.41

Compound: C[C@@](Cc1ccc(O)c(O)c1)(NN)C(=O)O
- scaled lipid accumulation score [1]: inactive: 0.021

Compound: C[C@@](Cc1ccc(O)c(O)c1)(NN)C(=O)O [Carbidopa]
- scaled lipid accumulation score [2]: inactive: ≤ 0
- scaled lipid accumulation score (library stock concentration: 8.8 mM): inactive: 0.006 and inactive: ≤ 0
- scaled lipid accumulation score [1]: inactive: ≤ 0

Compound: O=C[C@@H]1CCCN1C(=O)[C@@H]1CCCN1C(=O)OCc1ccccc1 [Z-prolyl-prolinal]
- scaled lipid accumulation score (library stock concentration: 15.1 mM): inactive: 0.107

Compound: CC1CCN(CC[C@H]2CCCN2S(=O)(=O)c2cccc(O)c2)CC1
- scaled lipid accumulation score [2]: inactive: ≤ 0
- scaled lipid accumulation score [1]: inactive: ≤ 0 and inactive: 0.019

Compound: Nc1ncnc2c1ncn2[C@@H]1O[C@H](CO)[C@@H](O)[C@@H]1O [Vidarabine]
- scaled lipid accumulation score: inactive: ≤ 0
- scaled lipid accumulation score [2]: inactive: ≤ 0
- scaled lipid accumulation score (library stock concentration: 7.5 mM): inactive: ≤ 0
- scaled lipid accumulation score [1]: inactive: ≤ 0

Compound: C[C@H]1C[C@H]2[C@@H]3CCC4=CC(=O)C=C[C@]4(C)[C@@]3(F)[C@@H](O)C[C@]2(C)[C@@]1(O)C(=O)COP(=O)(O)O
- scaled lipid accumulation score [1]: inactive: ≤ 0

Compound: CCCCC(CC)COC(=O)CC(C(=O)OCC(CC)CCCC)S(=O)(=O)O (centres undefined)
- scaled lipid accumulation score [1]: inactive: ≤ 0

Compound: Cc1[nH]cnc1CN1CCc2c(c3ccccc3n2C)C1=O
- scaled lipid accumulation score [1]: inactive: ≤ 0

Compound: O=C1NC(=O)c2cc(Nc3ccccc3)c(Nc3ccccc3)cc21
- scaled lipid accumulation score [1]: inactive: 0.353 and inactive: 0.003

Compound: CC(C)c1ccccc1Cc1cc(C(=O)Nc2ccc(S(=O)(=O)c3ccccc3C(C)(C)C)cc2)c(O)c(O)c1O
- scaled lipid accumulation score [2]: inactive: ≤ 0
- scaled lipid accumulation score [1]: inactive: ≤ 0

Compound: CC(=O)O[C@@H]1C[C@H]2C(C)(C)C(=O)C=C[C@]2(C)[C@H]2CC[C@@]3(C)[C@H](c4ccoc4)OC(=O)[C@H]4O[C@]43[C@@]21C [Gedunin]
- scaled lipid accumulation score [1]: inactive: 0.146 and inactive: 0.214

Compound: O=C(Nc1ccc2[nH]nc(-c3ccncc3)c2c1)[C@@H]1CCN(CC(=O)N2CCN(c3ccc(-c4ncccn4)cc3)CC2)C1
- scaled lipid accumulation score [1]: active: 0.909

Compound: O=C(O)CCc1ccc(NCc2cccc(Oc3ccccc3)c2)cc1
- scaled lipid accumulation score [4]: inactive: ≤ 0
- scaled lipid accumulation score [2]: inactive: ≤ -0.009
- scaled lipid accumulation score [1]: inactive: ≤ 0 and inactive: ≤ -0.07 and inactive: ≤ -0.001

Compound: Cc1cc2nc3c(=O)[nH]c(=O)nc-3n(C[C@H](O)[C@H](O)[C@H](O)CO)c2cc1C [Riboflavine]
- scaled lipid accumulation score: inactive: 0.134

Compound: Cc1cc2nc3c(=O)[nH]c(=O)nc-3n(C[C@H](O)[C@H](O)[C@H](O)CO)c2cc1C [Riboflavin]
- scaled lipid accumulation score (library stock concentration: 5.3 mM): inactive: ≤ 0
- scaled lipid accumulation score [1]: inactive: ≤ -0.027

Compound: CCCOc1ccc2[nH]c(NC(=O)OC)nc2c1 [Oxibendazole]
- scaled lipid accumulation score (library stock concentration: 8 mM): inactive: 0.055 and inactive: 0.012
- scaled lipid accumulation score [1]: inactive: ≤ -0.024

Compound: CC(C)(CO)Cc1cc(C(C)(C)C)c(O)c(C(C)(C)C)c1
- scaled lipid accumulation score [1]: active: 0.861

Compound: CN(CCCN1c2ccccc2CCc2ccccc21)CC(=O)c1ccc(Cl)cc1
- scaled lipid accumulation score [1]: inactive: 0.191

Compound: CN(CCCN1c2ccccc2CCc2ccccc21)CC(=O)c1ccc(Cl)cc1 [Lofepramine]
- scaled lipid accumulation score [1]: inactive: 0.323

Compound: CN(C)CCOC(c1ccccc1)c1ccccc1.Cn1c(=O)c2[nH]c(Cl)nc2n(C)c1=O [Dimenhydrinate]
- scaled lipid accumulation score: inactive: 0.238
- scaled lipid accumulation score [1]: inactive: ≤ 0

Compound: CCS(=O)(=O)N1CC(CC#N)(n2cc(-c3ncnc4[nH]ccc34)cn2)C1
- scaled lipid accumulation score [2]: inactive: ≤ 0
- scaled lipid accumulation score [1]: inactive: ≤ 0

Compound: CCS(=O)(=O)N1CC(CC#N)(n2cc(-c3ncnc4[nH]ccc34)cn2)C1 [Baricitinib]
- scaled lipid accumulation score (library stock concentration: 80 uM): inactive: ≤ -0.016
- scaled lipid accumulation score (library stock concentration: 400 uM): inactive: ≤ -0.016
- scaled lipid accumulation score (library stock concentration: 2 mM): inactive: ≤ -0.016
- scaled lipid accumulation score [1]: inactive: 0.04

Compound: COC(=O)c1ccc2c(c1)NC(=O)/C2=C(\Nc1ccc(N(C)C(=O)CN2CCN(C)CC2)cc1)c1ccccc1 [Intedanib (BIBF 1120, Vargatef) (10 mM)]
- scaled lipid accumulation score [1]: active: 1.51

Compound: CSC(=N)N [S-methyl Isothiourea (hemisulfate)]
- scaled lipid accumulation score [4]: inactive: ≤ 0

Compound: CSC(=N)N [S-Methylisothiourea hemisulfate]
- scaled lipid accumulation score [1]: inactive: ≤ -0.055

Compound: O=C(O)CCC/C=C\C[C@@H]1[C@@H](CC[C@@H](O)CCc2cccc(C(F)(F)F)c2)[C@H](O)C[C@@H]1O
- scaled lipid accumulation score [4]: inactive: ≤ 0

Compound: CS(=O)(=O)O.Cc1ccc(NC(=O)c2ccc(CN3CCN(C)CC3)cc2)cc1Nc1nccc(-c2cccnc2)n1 [Imatinib]
- scaled lipid accumulation score [1]: active: 0.969

Compound: CCCCCC=CCC=CC=CC=CC(SCC(NC(C)=O)C(=O)O)C(O)CCCC(=O)O (centres undefined) [N-Acetyl-leukotriene E4]
- scaled lipid accumulation score (library stock concentration: 100 uM): inactive: 0.032

Compound: O=C1NCC2(CCN(CCc3ccccc3)CC2)O1 [Fenspiride hydrochloride]
- scaled lipid accumulation score: inactive: 0.11
- scaled lipid accumulation score (library stock concentration: 6.7 mM): inactive: 0.002
- scaled lipid accumulation score [1]: inactive: ≤ 0 and inactive: ≤ -0.018

Compound: O=C1NCC2(CCN(CCc3ccccc3)CC2)O1 [Fenspiride HCl]
- scaled lipid accumulation score [2]: inactive: ≤ 0
- scaled lipid accumulation score [1]: inactive: ≤ -0.001

Compound: Clc1ccc2c(c1)CCc1cccnc1C2=C1CCNCC1 [Desloratidine]
- scaled lipid accumulation score [3]: inactive: 0.46

Compound: Clc1ccc2c(c1)CCc1cccnc1C2=C1CCNCC1 [Desloratadine]
- scaled lipid accumulation score [2]: inactive: 0.268
- scaled lipid accumulation score [1]: inactive: 0.837

Compound: Cl.N[C@@H](CCC(=O)O)C(=O)O [L-Glutamic acid hydrochloride]
- scaled lipid accumulation score [1]: inactive: ≤ -0.07

Compound: O=C1C[C@@H]2[C@@H](CC[C@@H](O)CCc3ccccc3)[C@H](O)C[C@@H]2O1 [Latanoprost Lactone Diol]
- scaled lipid accumulation score [4]: inactive: 0.003

Compound: COc1ccc(S(=O)(=O)N(CCO)c2ccccc2CN(C)CC=Cc2ccc(Cl)cc2)cc1.O=P(=O)OO.[H] [KN-93 Phosphate]
- scaled lipid accumulation score [1]: active: 1.07

Compound: CC(=O)[C@@]1(O)CC[C@H]2[C@@H]3CCC4=CC(=O)CC[C@]4(C)[C@H]3CC[C@@]21C [17alpha-hydroxyprogesterone]
- scaled lipid accumulation score [1]: inactive: ≤ -0.07

Compound: CC(=O)[C@@]1(O)CC[C@H]2[C@@H]3CCC4=CC(=O)CC[C@]4(C)[C@H]3CC[C@@]21C
- scaled lipid accumulation score [1]: inactive: ≤ 0

Compound: Nc1nccc(Oc2ccc(NC(=O)c3c[nH]cc(-c4ccc(F)cc4)c3=O)cc2F)c1Cl
- scaled lipid accumulation score [2]: inactive: ≤ 0
- scaled lipid accumulation score [1]: inactive: 0.182

Compound: Cc1nc2c(-c3cnc(N)nc3)nc(N3CCOCC3)nc2n1C(C)C
- scaled lipid accumulation score [2]: inactive: 0.019
- scaled lipid accumulation score [1]: inactive: ≤ -0.001
